Reference: PubChem BioAssay AID493208 (National Center for Advancing Translational Sciences (NCATS), 2011)
About 340 (0.77%) of roughly 44,000 compounds were called active. Inconclusive results (about 5%) are left out. Calls come from the whole dose curve; as a rule, active = well fitted inhibition curve with a large enough effect; inconclusive = small, poorly fitted or top-dose-only effect; inactive = flat fitted curve, though single readings scatter. This is one part of the list.

experiment: Acumen qHTS Assay for Inhibitors of the mTORC1 Signaling Pathway in MEF (Tsc2-/-, p53-/-) Cells: Sytravon; conditions: phospho-rpS6 immunofluorescence/PI, 24 h; series mostly up to 38.3 µM; activity change, negative = inhibition: at the top concentration; note: nearly all actives have a fitted effect of over 50% in size;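 for activity change, negative = inhibition: plate controls were DMSO for no effect and rapamycin for full effect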
How it was run: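 Tsc2-/-, p53-/- mouse embryonic fibroblasts (empty-vector line) exposed to compound 24 hrs at 37 C, fixed, immunostained for phospho-rpS6 and counterstained with propidium iodide. Acumen laser scanning gives % positive cells from Alexa 488/PI ratio, thresholded using 7.5 nM rapamycin; PI count gives viability.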
Potency is the fitted concentration of half-maximal effect.

Activity change, negative = inhibition, inactive:
COc1ccc(-c2cc(-c3ccccc3)c(C#N)c(SCC(O)CS(=O)(=O)Cc3ccc(Cl)cc3)n2)cc1 (stereo not given) 8.13%
COc1cccc(N2CCN(C(=O)c3ccc(C)c(NC(=O)c4nsc5ccccc45)c3)CC2)c1 7.7%
COc1cc(SC)ccc1C(=O)Nc1ccc(S(=O)(=O)Nc2nccc(C)n2)cc1 -2.01%
Cc1ccc(C(c2sc3nc(-c4ccco4)nn3c2O)N2CCCC2)cc1 (stereo not given) -1.43%
Cc1ccc(N(CC(=O)NCCc2ccc(Cl)cc2)S(=O)(=O)c2c(C)noc2C)cc1 -18.7%
Cc1cccc(NC(=O)Cn2nnc(-c3nc(-c4ccncc4)no3)c2N)c1 -9.03%
COc1ccc(CN2CCc3c(c(=O)n4ncc(C(=O)N5CCN(c6ccccc6OC)CC5)c4n3C)C2)cc1 -11.9%
Cc1ccc(NC(=O)CN2C(=O)c3ccccc3Sc3ccc(C(=O)N4CCOCC4)cc32)cc1F -7.49%
CCc1ccc2nc(N(Cc3cccnc3)C(=O)c3ccc(C#N)cc3)sc2c1 -24.5%
Cc1ccc(N2CCN(C(=O)c3nn(C)c4c3CS(=O)(=O)c3ccccc3-4)CC2)c(C)c1 6.99%
CC(=O)Nc1ccc(NC(=O)c2oc3c(c2C)-c2nn(Cc4ccccc4Cl)cc2CC3)cc1 7.2%
CCCCC(=O)Nc1ccc2nc(SCC(=O)N3CCc4ccccc43)sc2c1 -9.16%
O=C(CCn1c(=O)c2sccc2n(Cc2ccccc2F)c1=O)NCc1ccc2c(c1)OCO2 10.3%
CCOC(=O)c1ccc(NC(=O)Cn2nc3c4ccccc4n(Cc4cccc(F)c4)cc-3c2=O)cc1 1.52%
CCc1cccc(NC(=O)CCn2c(=O)c3cccn3c3cccnc32)c1 -19.9%
Cc1ccc(Nc2ccc3cc(S(=O)(=O)N4CCC(C)CC4)ccc3n2)c(Cl)c1 2.2%
CCOc1ccc(-n2cc(-c3ccccc3)c3c(NCCc4ccccc4)ncnc32)cc1 9.8%
Cc1cccc(NC(=O)Cn2nc(-c3ccccc3)c3cnc4ccccc4c32)c1 2.39%
CCOC(=O)N1CCc2c(sc3c2c(=O)n(Cc2ccccc2)c(=O)n3CC(=O)Nc2cccc(CC)c2)C1 0.154%
O=C(CCNS(=O)(=O)c1ccc2c(c1)CCCC(=O)N2)Nc1cccc(Cl)c1 2.15%
COc1ccc(C(=O)c2c(N)c(-c3nc(-c4ccc5c(c4)OCO5)cs3)c3ccccn23)cc1 -8.29%
O=C(NCCc1ccccc1)c1ccc(CS(=O)Cc2ccc(Cl)cc2)o1 (stereo not given) -3.5%
COC(=O)Cn1c(C2CC(=O)N(c3c(C)cccc3C)C2)nc2ccccc21 (stereo not given) 0.27%
Cc1cc(NC(=O)CCc2nc3cccnc3n2-c2ccccc2)ccc1Br 2.05%
O=C(Nc1ccc(F)cc1F)C1CCN(c2ncccn2)CC1 2.26%
O=S(=O)(c1ccc(C2CCCCC2)cc1)N1CCN(c2ccc(Cl)c(Cl)c2)CC1 -8.67%
Cc1ccccc1NC(=O)Cn1cc(C(=O)c2ccco2)c2ccccc21 -20.8%
Cc1ccc(C)c(N2CCN(c3ncnc4c3nc3n4CCCC3)CC2)c1 -1.48%
CCOC(=O)c1c(C)[nH]c(C)c1S(=O)(=O)N(C)CC(=O)Nc1ccc(OC)cc1 -11.2%
Cc1cccc(Cn2cc(S(=O)(=O)c3cccc(Cl)c3)c(=O)c3cc(F)c(N4CCOCC4)cc32)c1 -15.9%
Cn1c(=O)c2nc(SCC(=O)Nc3ccc(OC(F)(F)F)cc3)n(C)c2n(C)c1=O 0.634%
COc1ccc(CC(=O)Nc2c(C(=O)N3CCN(c4ccccc4)CC3)oc3ccccc23)cc1OC 5.07%
COc1ccc(-c2nc(CNC(=O)NC3CCCCC3)c(C)o2)cc1 0.0785%
COc1cc(C(CC(=O)Nc2ccc(C)c(F)c2)N2Cc3ccccc3C2=O)cc(OC)c1OC (stereo not given) 0.427%
CCN(CC)c1ncnc2c1cnn2-c1cc(Cl)ccc1C -19.9%
O=C1OCC2=C1C(c1cccc(Cl)c1)CC(=O)N2c1ccc(C(F)(F)F)cc1 (stereo not given) 8.79%
CCOc1ccccc1NC(=O)C1CCN(S(=O)(=O)c2c(C)noc2/C=C/c2ccco2)CC1 -14.2%
COc1cc(NC(=O)Cn2nc(C(F)(F)F)c3c2CCC3)cc(OC)c1OC -14.5%
COc1cc(OC)cc(-c2cc3nc(C)c(CCC(=O)NCCc4cccc(C)c4)c(C)n3n2)c1 0.0372%
COc1ccc(OC)c(CNC(=O)c2ccc(N3Cc4ccccc4Oc4ncccc43)s2)c1 -5.76%
O=C(CCn1c(=O)c2ccccc2n(CC(=O)Nc2cccc(F)c2)c1=O)NCCc1ccccc1 4.51%
Cc1noc(-c2ccc(-c3noc(-c4ccc(F)cc4)n3)cc2)n1 2.3%
CCOC(=O)c1cccc(NC(=O)CCSCCc2ccccn2)c1 0.523%
COc1cccc(CNC(=O)c2cc3c(-c4ccccc4F)nn(C)c3s2)c1 -1.93%
O=C(CCCn1c2ccccc2c(=O)c2ccccc21)Nc1cccc(Cl)c1 9.53%
COc1cc(C2Nc3ccccc3-c3cc(C)nn32)ccc1O (stereo not given) -14.1%
Cc1ccc(NC(=O)Cn2nc(-c3ccccc3)nc(Cc3ccc(Cl)cc3)c2=O)cc1 -6.22%
O=C(NCCc1ccc(Cl)cc1)c1c2c(nc3ccccc13)C(=O)N(C1CCCCC1)C2 -10.2%
Cc1csc2nc(COC(=O)c3ccccc3NC(=O)c3cccc(Br)c3)cc(=O)n12 7.43%
O=S(=O)(c1ccc(Br)s1)N1CCN(c2cccc(C(F)(F)F)c2)CC1 -3.31%
COCCn1c(SCC(=O)Nc2cc(Cl)ccc2OC)nc2c([nH]c3ccccc32)c1=O 2.7%
COc1ccc(CNC(=O)CCNS(=O)(=O)c2ccc3c(c2)oc(=O)n3C)cc1 -16%
Cc1ccccc1C(=O)Nc1cc(C)c(O)c(-c2nc3ccccc3o2)c1 1.2%
CCC1CN(C(=O)Nc2ccccc2F)c2cc(C)ccc2O1 (stereo not given) -17.3%
CCOc1ccc(-c2nc(Cn3c(=O)cc(C)c4c(C)nn(-c5ccccc5)c43)c(C)o2)cc1 1.26%
CCCCCCn1nnc2sc(-c3ccccc3)cc2c1=O -8.95%
CC1CCN(CC2CCN(C(=O)NCc3ccccc3)CC2)CC1 -3.55%
COc1cc(C)ccc1OCCSc1nc2ccc(NC(=O)c3ccco3)cc2s1 -9.45%
COc1ccc(C2CC(=O)c3cc(-c4nc(-c5cccc([N+](=O)[O-])c5)cs4)c(=O)n(-c4ccccc4)c3C2)cc1 (stereo not given) 1.09%
CCN1c2ccccc2-c2nc(SCC(=O)Nc3cccc(C)c3C)ncc2S1(=O)=O -5.19%
CCn1cc(C(=O)N(C)Cc2ccccc2)c(=O)c2cc(S(=O)(=O)N3CCc4ccccc4C3)ccc21 7.77%
CCc1ccc(NC(=O)CSc2ccnc(=O)[nH]2)cc1 4.84%
COc1cccc(C(=O)NCC2OCCc3ccccc32)c1 (stereo not given) 9.18%
O=C(NCCc1ccccc1)c1ccc2c(c1)N(Cc1ccc(Cl)cc1)C(=O)CS2 -8.08%
Cc1nn(C)c(C)c1S(=O)(=O)N(CC(=O)NCCc1ccccc1)c1ccc(C(C)C)cc1 -16.2%
Cc1ccc(C(=O)c2cn(Cc3cccc(Cl)c3)c3nc(C)ccc3c2=O)cc1 -6.85%
CCCCNC(=O)c1nn(C)c2c1CSc1ccccc1-2 -0.897%
O=C(CSCc1ccc(F)cc1)N1CCN(c2ccccc2F)CC1 1.84%
Cc1cc2c(cc1S(=O)(=O)NCc1ccc(F)cc1)n(C)c(=O)c(=O)n2C 1.68%
Cc1cccc(N2C(=O)CC(c3ccc(F)cc3)C3=C2COC3=O)c1 (stereo not given) -16.1%
COc1ccc(NC(=O)c2ccco2)cc1NC(=O)COc1ccc(C)c(C)c1 1.15%
Cc1ccc(-c2nn3c(-c4ccccc4C)nnc3c3ccccc23)cc1 1.45%
CCOC(=O)c1cc(-c2ccccc2)n(-c2cccc(C(=O)Nc3cccc(SC)c3)c2)c1C -2.66%
COc1ccc(CCC(=O)NCCc2csc(-c3ccc(F)cc3)n2)cc1 -9.81%
COc1ccc(OC)c(NC(=O)CSc2nc(=O)n(CCN(C)C)c3c2CCC3)c1 -5.88%
CCc1ccccc1NC(=O)N1CCOc2ccccc21 0%
O=C(Cn1ncc2c([nH]c3ccccc32)c1=O)NCCCN1CCN(c2ccc(F)cc2)CC1 -0.662%
CCCOc1ccc(C2C(=O)N(C3CCCCCC3)CC(=O)N2Cc2ccccc2OC)cc1OC (stereo not given) 1.1%
COc1cc(NC(=O)CC2C(=O)N(c3ccccc3)C(=O)N2Cc2ccc(F)cc2)cc(OC)c1 (stereo not given) -3.1%
CCc1ccc(-n2c(=O)c3c4c(sc3n(Cc3ccccc3C#N)c2=O)CCCC4)cc1 1.85%
CCCn1c2ccccc2c2cnn(CC(=O)Nc3cc(C)c(Cl)cc3OC)c(=O)c21 -2.77%
CC1CCc2c(sc(NC(=O)Cc3ccccc3)c2C(=O)Nc2ccc(Cl)cc2)C1 (stereo not given) -5.93%
Cc1ccccc1-c1noc(CSc2nc3ccccc3[nH]2)n1 -0.87%
CCOC(=O)C1CCCN(C(=O)c2ccc3c(c2)sc2nc(-c4cccc(OC)c4)cn23)C1 (stereo not given) -0.929%
CCOCCc1nn2c(=O)cc(COC(=O)c3ccccc3OC)nc2s1 3.15%
COCCCn1c(SCc2cccc(Cl)c2)nc2c(sc3ccccc32)c1=O -4.9%
CCc1ccccc1Nc1nn2c(=O)c3ccc(C(=O)NCCC4=CCCCC4)cc3nc2s1 -6.38%
Cc1cc(=O)n2nc(N(C)CC(=O)NCc3ccccc3C)sc2n1 0.175%
CCCC(=O)Nc1cccc(OCc2cc(=O)n3cccc(C)c3n2)c1 -14.4%
O=C(NCCc1ccccc1)c1cc(Nc2ccccc2)nc2ccccc12 -9.83%
CCOCCc1nnc(NC(=O)C(=O)c2cc(C)n(-c3ccc(C)cc3C)c2C)s1 -1.35%
CCn1c(C)c(C)c2cc(C(=O)NCC(C)c3ccccc3)ccc21 (stereo not given) -13.4%
COc1ccc2c(c1)c1c(c(=O)n(Cc3ccccc3)c(=O)n1CC(=O)Nc1ccccc1OC)n2C -0.408%
COc1ccc(N(CC(=O)Nc2cccc(Cl)c2)S(=O)(=O)c2c(C)[nH]c(=O)[nH]c2=O)cc1 -9.93%

Potency, active:
CCOc1ccc(Nc2nc(-c3cccc(Cl)c3)c3c(n2)-c2ccccc2OC3)cc1 2.33 µM
